Results taken from patent US20240270806A1 (Chugai, published 2024).

Biological target: Human IL-12 receptor (human IL-12Rb1 and IL-12Rb2) (human, UniProt P42701 24-662; Q99665 24-862)
Experiment: cell-based or functional assay

- EC50 (read off the curve), IL-12 luciferase reporter assay (+ MTSP1) [right graph]: ~0.2 nM
B1: Bivalent IL-12 fusion FP5 (other)
heavy: QVQLVQSGAEVKKPGASVKVSCKASGYTFTDYYLHWVRQAPGQGLEWMGWIDPENGDTEYAPKFQGRVTMTTDTSTSTAYMELRSLRSDDTAVYYCNANKELRYFDVWGQGTMVTVSSTSTSGRSANPRGASTKGPSVFPLAPSSKSTSGGTAALGCLVKDYFPEPVTVSWNSGALTSGVHTFPAVLQSSGLYSLSSVVTVPSSSLGTQTYICNVNHKPSNTKVDKRVGGGGSGGGGS[human IgG1 Fc with changes cut from this listing]GSGGSGGSGGSGGSGGSIWELKKDVYVVELDWYPDAPGEMVVLTCDTPEEDGITWTLDQSSEVLGSGKTLTIQVKEFGDAGQYTCHKGGEVLSHSLLLLHKKEDGIWSTDILKDQKEPKNKTFLRCEAKNYSGRFTCWWLTTISTDLTFSVKSSRGSSDPQGVTCGAATLSAERVRGDNKEYEYSVECQEDSACPAAEESLPIEVMVDAVHKLKYENYTSSFFIRDIIKPDPPKNLQLKPLKNSRQVEVSWEYPDTWSTPHSYFSLTFCVQVQGKSKREKKDRVFTDKTSATVICRKNASISVRAQDRYYSSSWSEWASVPCSGGGGSGGGGSGGGGSGGGGSRNLPVATPDPGMFPCLHHSQNLLRAVSNMLQKARQTLEFYPCTSEEIDHEDITKDKTSTVEACLPLELTKNESCLNSRETSFITNGSCLASRKTSFMMALCLSSIYEDLKMYQVEFKTMNAKLLMDPKRQIFLDQNMLAVIDELMQALNFNSETVPQKSSLEEPDFYKTKIKLCILLHAFRIRAVTIDRVMSYLNAS
light: EIVMTQSPATLSVSPGERATLSCRASQSISINLHWYQQKPGQAPRLLIYFASQSISGIPARFSGSGSGTEFTLTISSLQSEDFAVYYCQQSNSFPLTFGGGTKVEIKRTVAAPSVFIFPPSDEQLKSGTASVVCLLNNFYPREAKVQWKVDNALQSGNSQESVTEQDSKDSTYSLSSTLTLSKADYEKHKVYACEVTHQGLSSPVTKSFNRGEC
